Test results from the supplement of paper PMC9334596.
Values joined by “and” are separate entries in the source; they are usually repeats but may differ in a detail not shown here. Equal values may be shown once. In all, about 5,300 compounds were measured (“PER2::LUC luminescence relative to vehicle control”: median about 0.96, highest 2% from about 1.3 on). The list shows a part of the results.

Tested on: mPer2Luc MEF
Assay: PER2::LUC luminescence relative to vehicle control (fold of vehicle); higher = higher PER2::LUC reporter signal
Details: 10 µM
Outline: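 In 384-well plates, ~3000 mPer2Luc reporter mouse embryonic fibroblasts per well were cultured in DMEM with 10% FBS at 37 °C and 5% CO2 for 48 h before compounds from commercial libraries were added at 10 μM. ONE-Glo luciferase readings were taken 24 h and 30 h after treatment. Each value is PER2::LUC luminescence given as fold of vehicle control.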

Structure (SMILES) | PER2::LUC luminescence (time after treatment 24 h) | PER2::LUC luminescence (time after treatment 30 h)
O=C1NC(=O)[C@@H](c2cn3c4c(cccc24)CCC3)[C@@H]1c1c[nH]c2ccccc12 | 0.376 | 0.404
COc1ccc(CCNC[C@@H](O)c2ccc(O)cc2)cc1OC | 0.86 | 0.91
Cn1c(=O)c2c(ncn2CCO)n(C)c1=O | 1.26 | 1.19
CCCN1CCN(c2ccc(C(=O)NC3(C(=O)NCC#N)CCCCC3)cc2)CC1 | 0.977 | 0.898
C[C@@]1(c2cc(-c3cncnc3)c(F)cc2F)CCSC(N)=N1 | 0.96 | 1.06
COc1ccc2c(c1)O[C@H]1c3ccc(OC)cc3OC[C@@H]21 | 0.983 | 1.08
C[C@H]1N=C(N(C)C)N=C(N)N1 | 1.1 | 1.05
CC(=O)/C(C)=N/O | 1.28 and 0.838 | 1.11 and 0.875
O=[N+]([O-])c1cc2nc(O)c(O)nc2cc1[N+](=O)[O-] | 0.887 | 1.04
CC(C)NCC(O)c1cc(O)cc(O)c1 (stereo unspecified) | 1.1 and 1.04 and 1.21 | 0.935 and 0.799 and 0.968
CC(C)(CO)Cc1cc(C(C)(C)C)c(O)c(C(C)(C)C)c1 | 1.04 | 1.12
O=C(O)CN(CCN(CC(=O)O)CC(=O)O)CCN(CC(=O)O)CC(=O)O | 1.05 and 0.967 | 0.871 and 0.877
C#CCN(C)CCCOc1ccc(Cl)cc1Cl | 1.23 | 1.37
COc1ccc(-c2cc(=O)c3c(OC)c(OC)c(OC)cc3o2)cc1OC | 0.736 | 0.843
CCCn1cnc2c1c(=O)n(CCCCC(C)=O)c(=O)n2C | 0.982 | 0.876
CCCCCCCCCCCCCCSCC(=O)O | 0.984 | 1.03
COc1ccc(-c2cc(=O)c3c(O)cc(OC)cc3o2)cc1 | 1.29 | 1.46
COc1ccc2[nH]c(C(=O)c3ccccc3)cc2c1 | 0.524 | 0.75
O=C(/C=C/C=C/c1ccc2c(c1)OCO2)N1CCCCC1 | 1.5 | 1.42
O=C(O)C(S)=Cc1c[nH]c2ccc(F)cc12 | 1.09 | 1.03
O=c1c2ccccc2nc2n1CCc1c-2[nH]c2ccccc12 | 1.36 | 1.51
OC[C@H]1O[C@@H](n2cnc3c2N=CNC[C@H]3O)C[C@@H]1O | 0.983 | 0.951

Structure (SMILES) | PER2::LUC luminescence (time after treatment 24 h) | PER2::LUC luminescence (time after treatment 30 h)
CN(C)c1ccccc1CN1CCCN(Cc2ccccc2N(C)C)C1c1ccncc1 | 0.511 | 0.808
CCC(=O)OCC(=O)[C@@]1(OC(=O)CC)[C@@H](C)C[C@H]2[C@@H]3CCC4=CC(=O)C=C[C@]4(C)[C@@]3(Cl)[C@@H](O)C[C@@]21C | 0.628 | 0.903
CCN(CC)Cc1cc(Nc2ccnc3cc(Cl)ccc23)ccc1O | 0.671 and 0.499 | 0.701 and 0.755
COCC(=O)O[C@]1(CCN(C)CCCc2nc3ccccc3[nH]2)CCc2cc(F)ccc2[C@@H]1C(C)C | 0.667 | 0.524
Oc1cc2c(c(Cl)c1O)CCNCC2c1ccccc1 (stereo unspecified) | 0.957 | 0.798
O=c1ccc2cccc(O)c2[nH]1 | 1.06 | 0.957
CC(C)=CCC/C(C)=C/CC/C(C)=C/CC/C(C)=C/CO | 1.08 | 1.12
CC(C)CCCC(C)C1CCC2C3CCC4CC(O)CCC4(C)C3CCC12C (stereo unspecified) | 0.978 | 0.951
COc1ccccc1N1CCN(CCCNc2cc(=O)n(C)c(=O)n2C)CC1 | 0.98 and 0.844 | 0.907 and 0.934
O=C(Nc1cccc(Nc2ncc(Br)c(NCCc3cnc[nH]3)n2)c1)N1CCCC1 | 0.55 | 0.463
O=C(CCCN1CCC(O)(c2cccc(C(F)(F)F)c2)CC1)c1ccc(F)cc1 | 0.841 | 0.846
OC[C@H]1O[C@@](CO)(O[C@H]2O[C@H](CO)[C@@H](O)[C@H](O)[C@H]2O)[C@@H](O[C@H]2O[C@H](CO)[C@@H](O)[C@H](O)[C@H]2O)[C@@H]1O | 1.14 | 1.02
O=C(O)[C@H]1CN[C@H](C(=O)O)C1 | 1.01 | 1.04
CC(C)S(=O)(=O)NC[C@H](C)c1ccc(-c2ccc(CCNS(C)(=O)=O)cc2)cc1 | 0.962 | 0.902
COc1nc(N)nc2c1ncn2[C@@H]1O[C@H](CO)[C@@H](O)[C@@H]1O | 1.11 | 0.989
CC1(C)C[C@@H]2C(=O)CC[C@H]3O[C@]3(C)CC[C@H]21 | 0.973 | 0.909
O=C1CCC(N2C(=O)c3ccccc3C2=O)C(=O)N1 (stereo unspecified) | 1.16 | 0.867
O=C1[C@@H]2[C@H]3CC[C@H](C3)[C@@H]2C(=O)N1CCCCN1CCN(c2ncccn2)CC1 | 0.991 | 0.996
c1cn2cc(-c3ccc4cn[nH]c4c3)nc(Nc3ccc(N4CCOCC4)cc3)c2n1 | 0.243 | 0.3
C[C@H](CCC(=O)NCCS(=O)(=O)O)[C@H]1CC[C@H]2[C@@H]3[C@@H](O)C[C@@H]4C[C@H](O)CC[C@]4(C)[C@H]3CC[C@]12C | 1.04 | 0.996
CCOc1ccc(NC(=O)CC(C)O)cc1 (stereo unspecified) | 1.09 | 0.961
